Laboratory results from the supplement of paper PMC11417369.
The other results are listed elsewhere or left out.

Tested on: PfHDP1 homeodomain (GST-tagged)
Assay: gcPBM binding intensity (ln(normalized median fluorescence intensity)); higher = stronger DNA binding
Summary of the method: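 For binding intensity, the highest Masliner-normalised natural-log median intensity across replicate spots of either probe orientation was taken. Protein bound to the array was stained with Alexa488 anti-GST antibody and scanned at 488 nm. The protein, GST-tagged P. falciparum DNA-binding domains from E. coli at about 25 μg on average, had been applied for 1 h to an Agilent 4 × 180k array of primer-extended double-stranded 36-bp intergenic genomic probes and negative controls.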

Point of comparison: “TTATATCCCGTCCTTTATTAAAAAAATTTTTTTTCT [TGCATGCA_negctrl_site582]”, “gcPBM binding intensity (ln)” value 6.93. Against it:
- TTATATGTATGGAGGTTTTTGTATATAGATATATAG [CACACA_negctrl_site177] — lower, 6.34
- CATCTTATATAATCATGTACATATAGAGACTTCTTT [XGTACX_site7685] — lower, 6.46
- TTTTTCTTACATGAGTGTACACACTTTTTTTCAGAA [XGTACX_site138] — higher, 8.48
- GGGGGAATTTACATGGGTACACATGTATTAAAAAAT [XGTACX_site4130] — higher, 7.81
- TTTTGAAAAAGTTGCACACAAAATTTAAAAAAAAAA [CACACA_site1632] — higher, 9.25
- TTAAATAGAAATAAGACTAACAATGAACCAAAAAAA [CACACA_negctrl_site991] — higher, 7
- TAGGAAAAGAAAAGCACACACATAAATAGATATATA [CACACA_site6382] — lower, 6.59
- ATATATATATATATATATATAATTTTTTTTGTTTTT [TGCATGCA_negctrl_site453] — higher, 9.47
- TATATTATTAATTAGGGTACAAAAAAAAAATTTTTT [XGTACX_site7762] — lower, 6.67
- GATATCAAAAAGATGGGTACATATATTTAAGTTCAT [XGTACX_site3822] — lower, 6.05
- TCTTTAATATATAGTGCATGTAAATTTTACAATAAT [TGCATGCA_site242] — higher, 8.14
- TATGGTATATACAACACACACACATATGTATATATA [CACACA_site927] — lower, 6.88
- AAGTTAACACAACAGGTGCAAGAAAAGTTTTTAATG — higher, 8.29
- ATCAAGCACGGACACACACACACACCCAGACCCCCA [CACACA_site4360] — lower, 6.69
- AGTTAATGTTTATGTACACACGGTGGGTATATATTT [CACACA_site5785] — lower, 6.76
- ATATTATATATATGTGCACACAAAAGATATATATAT [CACACA_site2125] — higher, 10.5
- CTTAAAAAAACCTTAACACACATAAACTATAATTTA [CACACA_site3055] — lower, 6.41
- TTTTCATTTGAAAGTCGTACAAGTTCGAAAAAAGGA [XGTACX_site6840] — lower, 6.47
- ATAAGCAATAAAAAAACATGCATATTATTATCAACA [TGCATGCA_site1027] — lower, 6.43
- TGCAACAAAATAAACACACACACACTAACACAAAAA [CACACA_site7567] — lower, 6.76
- TTTAAAAATAAAAGTACACACATAAACATATTGCAC [CACACA_site6784] — higher, 7.47
- CTTTTTTATATCTCTACACACATTTATAACAATTTG [CACACA_site1398] — higher, 6.98
- TACGTAATAATATGCACACAAATAAACTTTATAAAT [CACACA_site3501] — higher, 9.89
- TTTAAACGTTATATAGTGCATGTCATATTTTATTAT — higher, 7.26
- CAAAAAAGTAAAACGTGTACATATATACATAAAAAT [XGTACX_site5639] — higher, 7.26
- AAAACATACATATATACACACATATATATATATATA [CACACA_site1852] — higher, 9.38
- CAAACTACAAAATTTCGTACGCATATATTTCAAGTA [XGTACX_site5154] — lower, 6.39
- TATGTTGGTTCTTTTAGTACATAATTACTAAATGTA [XGTACX_site8616] — lower, 6.43
- TATACATTTATGTACACACACATATAGGTATATTTA [CACACA_site7408] — lower, 6.36
- AAAATATAATATATTACACACATATATTTTATAAGT [CACACA_site668] — lower, 6.48
- TTTTTTTAACGGTGTGCACACAATATACAGAAAAAA [CACACA_site1415] — higher, 11.1
- TATATACATTTATATACACACCTATATTTATTTATA [CACACA_site7014] — lower, 6.66
- ATTATATATATTTATGCACACAAAATATATTATATA [CACACA_site9244] — higher, 10.1
- ATGTACCTATTTCATACACACACACCCACAAACAAA [CACACA_site8232] — higher, 7.2
- TATATTGAAAATAAAACATGCAATCACTCATACATA [TGCATGCA_site248] — lower, 6.38
- CAACAATTTCGTCATACACACATTCAGAATCTATAT [CACACA_site7171] — lower, 6.58
- TATATATTAATATGCACACACAAGAAGTAATTATAA [CACACA_site3193] — higher, 9.89
- GGCATACACGGACACACACACACACCGACATATATA [CACACA_site4493] — higher, 7.32
- ATTATATAACAAAATAGTACATATATTTATTACATC [XGTACX_site336] — lower, 6.19
- TTATTCTAAAAAGGGTGTACACAAACGAATGGAAAA [XGTACX_site5662] — higher, 7.6
- AGCAGTCAGCAGGACAGTACACAGTAGCCAGGAAAT [XGTACX_site4877] — lower, 6.13
- AAAAAAAAAATTTAGGTGCATACAAATAAATTATAT [GTGCAC_site9521] — higher, 8.45
- ATGGCTAAAAGTTGCACACACACAAAAAAAAAAAAA [CACACA_site3289] — higher, 9.6
- TAATTTCTTATGTGCTATCTTATATAGAATTAATTT [CACACA_negctrl_site1726] — lower, 6.61
- TATAAAAAATAAAATACACACACATATATATATATA [CACACA_site8365] — higher, 9.16
- TGCACAAAATTATGCACACACCTAAAATTAATTTTT [CACACA_site5596] — higher, 10.8
- ATTCTAATCATATACACACCCATATATATATATATA [CACACA_site1774] — higher, 9.38
- GGCAATGATTTTAGGTGTACTTAAAAATCAAATTAA [XGTACX_site8587] — lower, 5.98
- ACAAAAAATAATCAAAATGTATATATATAATATAAT [XGTACX_negctrl_site593] — lower, 6.44
- TATTGAAGTTATAAAGTGCAGATAAATATGAGTTAT [GTGCAC_site9945] — higher, 7.72
- AAATGCCATATAATTTTTCTTAAACATAATTGTATA [CACACA_negctrl_site1665] — lower, 5.96
- ATTGTCTTCTCATATACACACTTTTATGACTATCTT [CACACA_site5696] — higher, 7.08
- TGTGTAATTATATATAAGGAGAAAGAATTCATTTTT [CACACA_negctrl_site670] — lower, 6.3
- AAAAAAAAATTTTTAAAATTTAGAAAATTTAAAAAA [GTGCAC_negctrl_site649] — lower, 5.66
- TAATAATGCAACCTCTGTACACAACATTATATCCAT [XGTACX_site7596] — higher, 8.78
- TATATATAAGCGTGTACACATTCTGAGTGTTGTATA [CACACA_site4502] — higher, 7.02
- GATTATACAAAATATACACACGTGTAGACAAATATT [CACACA_site4785] — lower, 6.89
- ATAATATTATTATAATGTACATATTTCGATATAAAT [XGTACX_site8808] — lower, 6.74
- ATATTTAATGTTAATTGTACATATTATATATATATA [XGTACX_site6095] — higher, 8.49
- AAAAAAATATATATTACACACATATATACCTATATA [CACACA_site5688] — lower, 6.62
- ATATATATTAATAGGTGTACATATAAAGTGTTATGT [XGTACX_site5464] — lower, 6.83
- TATGTGAATATAATCACACACAATACGGAAACCCAC [CACACA_site2725] — higher, 7.04
- AAAGTCTCATTAAAATGTACAAAATTTTCAGCTGTA [XGTACX_site6296] — lower, 6.15
- TTATATATAAACATAAAAAGAAATATATTATGTATA [CACACA_negctrl_site667] — lower, 6.22
- TAATTTTTAATTGTAGCATGCAGTATTTTTAAATAT [TGCATGCA_site140] — lower, 6.52
- AATACATTGTCAAATTGTACAAATTATAGAACTATT [XGTACX_site2222] — lower, 6.47
- CCATAAAAAGGATACACACACACACCCACATATATA [CACACA_site903] — lower, 6.76
- TGTTTTTATATATATGCACACAATGTACAAGTATAC [CACACA_site3529] — higher, 10.4
- AAAGGGGCATATATATGTACATATTATATATTTTGA [XGTACX_site2436] — lower, 6.72
- ATTATCCATGCATTTACACACACACCCAAAAAAATT [CACACA_site4101] — higher, 7.67
- AAAAAAAAATATATATAAAATTAAAAAATGTAATAT [GTGCAC_negctrl_site581] — lower, 6.28
- ATTAAAAAAAAAAGTATACACACTTCTTAATGTCAA [CACACA_site1244] — lower, 6.61
- ATGGGTTGTTCAAATAGTACATATGTAGCCCACCAT [XGTACX_site3735] — lower, 6.54
- TTTTTTTTTTTTTGTGCATGTAGATTTATTGTTATA [TGCATGCA_site582] — higher, 8.42
- TTTAAATATATATTTAGTACTTATTCTTAAAATTTT [XGTACX_site624] — lower, 6.38
- AAAAAAGAATAGCACACACACATATATAAATATAAA [CACACA_site4518] — higher, 6.97
- GTTACATACAGATACACACACATATATATATATATA [CACACA_site4652] — higher, 9.38
- AATTATACATACATATATATATTTATATATATATAT [GTGCAC_negctrl_site462] — higher, 8.69
- GTAGAGGATTAAGAATGTACACATAAATACATATTT [XGTACX_site8874] — lower, 6.3
- TTAAAAATGATTGAATGTACAGATTAATATAATTTT [XGTACX_site7394] — lower, 6.08
- GATCTACATGAAAGGACACACAAATATATATATATA [CACACA_site84] — higher, 9.07
- ATAAATATGGAGCACACACACATAAACATACCTATA [CACACA_site6336] — higher, 7.15
- TAATTTTTGAAACACACACACATATATATATATATA [CACACA_site94] — higher, 9.43
- AAATATTATGTGGCAAGTACATAAAGAAAATGCTTA [XGTACX_site3356] — lower, 6.07
- ATAATAAGGTTAAGCACACATATTACAGATATAACT [CACACA_site5791] — lower, 6.41
- AATAATAATAATAATAGTACATATTATGAATATGAT [XGTACX_site5730] — lower, 6.43
- ATATATATTTTATTATGTACATATAAATATTACACA [XGTACX_site4062] — lower, 6.69
